# Measurements as given in the supplement of paper PMC8728848.
# The list shows a part of the results.
# Tests used:
# Assay in all cases: glycan array binding signal (z-score within array); higher = stronger binding
# Settings in all cases: glycan notation: IUPAC condensed, linker removed
# [1] = biological target: GlcNAc(b1-3)Gal(b1-4)GlcNAc(b1-3)Gal(b1-4)GlcNAc(b1-3)Gal(b1-4)GlcNAc(b1-3)Gal(b1-4)GlcNAc(b1-2)[GlcNAc(b1-3)Gal(b1-4)GlcNAc(b1-3)Gal(b1-4)GlcNAc(b1-3)Gal(b1-4)GlcNAc(b1-3)Gal(b1-4)GlcNAc(b1-6)]Man(a1-6)[GlcNAc(b1-3)Gal(b1-4)GlcNAc(b1-3)Gal(b1-4)GlcNAc(b1-3)Gal(b1-4)GlcNAc(b1-3)Gal(b1-4)GlcNAc(b1-2)Man(a1-3)]Man(b1-4)GlcNAc(b1-4)[Fuc(a1-6)]GlcNAc
# In short: (§1)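 Glycan array binding is given as a within-array Z-score, which can be read as non-binding when negative. The arrays, 3228 of them, came from the Consortium for Functional Glycomics database and were retained only where the protein sequence was available. Z-scores were averaged across arrays of the same protein sequence at different concentrations or buffers and across linkers.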
# [2] = biological target: GlcNAc(b1-3)Gal(b1-4)GlcNAc(b1-3)Gal(b1-4)GlcNAc(b1-3)GalNAc
# In short: as §1
# [3] = biological target: GlcNAc(b1-3)Gal(b1-4)GlcNAc(b1-3)GalNAc
# In short: as §1
# [4] = biological target: GlcNAc(b1-3)Gal(b1-4)GlcNAc(b1-3)[GlcNAc(b1-3)Gal(b1-4)GlcNAc(b1-3)]GalNAc
# In short: as §1
# [5] = biological target: GlcNAc(b1-3)Gal(b1-4)GlcNAc(b1-6)[Gal(b1-3)]GalNAc
# In short: as §1
# [6] = biological target: GlcNAc(b1-3)Gal(b1-4)GlcNAc(b1-6)[GlcNAc(b1-3)Gal(b1-3)]GalNAc
# In short: as §1
# [7] = biological target: GlcNAc(b1-3)Gal(b1-4)GlcNAc(b1-6)[GlcNAc(b1-3)]Gal(b1-4)GlcNAc
# In short: as §1
# [8] = biological target: GlcNAc(b1-3)GalNAc
# In short: as §1
# [9] = biological target: GlcNAc(b1-3)Man
# In short: as §1
# [10] = biological target: GlcNAc(b1-3)[GlcNAc(b1-4)][GlcNAc(b1-6)]GlcNAc
# In short: as §1
# [11] = biological target: GlcNAc(b1-3)[GlcNAc(b1-6)]Gal(b1-4)GlcNAc
# In short: as §1
# [12] = biological target: GlcNAc(b1-3)[GlcNAc(b1-6)]GalNAc
# In short: as §1
# [13] = biological target: GlcNAc(b1-4)Gal(b1-4)GlcNAc
# In short: as §1
# [14] = biological target: GlcNAc(b1-4)GlcNAc
# In short: as §1
# [15] = biological target: GlcNAc(b1-4)GlcNAc(b1-4)GlcNAc
# In short: as §1
# [16] = biological target: GlcNAc(b1-4)GlcNAc(b1-4)GlcNAc(b1-4)GlcNAc(b1-4)GlcNAc
# In short: as §1
# [17] = biological target: GlcNAc(b1-4)GlcNAc(b1-4)GlcNAc(b1-4)GlcNAc(b1-4)GlcNAc(b1-4)GlcNAc
# In short: as §1
# [18] = biological target: GlcNAc(b1-4)[GlcNAc(b1-6)]GalNAc
# In short: as §1
# [19] = biological target: GlcNAc(b1-6)Gal(b1-4)GlcNAc
# In short: as §1
# [20] = biological target: GlcNAc(b1-6)GalNAc
# In short: as §1
# [21] = biological target: GlcNAc6S(b1-3)Gal(b1-4)GlcNAc
# In short: as §1
# [22] = biological target: Kdn(a2-3)Gal(b1-3)GalNAc
# In short: as §1
# [23] = biological target: Kdn(a2-3)Gal(b1-3)GlcNAc
# In short: as §1
# [24] = biological target: Kdn(a2-3)Gal(b1-4)Glc
# In short: as §1
# [25] = biological target: Kdn(a2-3)Gal(b1-4)GlcNAc
# In short: as §1
# [26] = biological target: Kdn(a2-3)Gal(b1-4)[Fuc(a1-3)]GlcNAc
# In short: as §1
# [27] = biological target: Kdn(a2-6)Gal(b1-4)GlcNAc
# In short: as §1
# [28] = biological target: Man(a1-2)Man(a1-2)Man(a1-3)Man
# In short: as §1
# [29] = biological target: Man(a1-2)Man(a1-2)Man(a1-6)[Man(a1-3)]Man
# In short: as §1
# [30] = biological target: Man(a1-2)Man(a1-3)Man
# In short: as §1
# [31] = biological target: Man(a1-2)Man(a1-3)[Man(a1-2)Man(a1-6)]Man
# In short: as §1
# [32] = biological target: Man(a1-2)Man(a1-3)[Man(a1-2)Man(a1-6)]Man(a1-6)[Man(a1-2)Man(a1-2)Man(a1-3)]Man
# In short: as §1
# [33] = biological target: Man(a1-2)Man(a1-3)[Man(a1-2)Man(a1-6)]Man(a1-6)[Man(a1-2)Man(a1-2)Man(a1-3)]Man(b1-4)GlcNAc(b1-4)GlcNAc
# In short: as §1
# [34] = biological target: Man(a1-2)Man(a1-3)[Man(a1-6)]Man(a1-6)[Man(a1-2)Man(a1-3)]Man(b1-4)GlcNAc(b1-4)GlcNAc
# In short: as §1
# [35] = biological target: Man(a1-2)Man(a1-6)[Man(a1-3)]Man(a1-6)[Man(a1-2)Man(a1-2)Man(a1-3)]Man
# In short: as §1
# [36] = biological target: Man(a1-2)Man(a1-6)[Man(a1-3)]Man(a1-6)[Man(a1-2)Man(a1-2)Man(a1-3)]Man(b1-4)GlcNAc(b1-4)GlcNAc
# In short: as §1
# [37] = biological target: Man(a1-3)[Man(a1-6)]Man
# In short: as §1
# [38] = biological target: Man(a1-3)[Man(a1-6)]Man(a1-6)[Man(a1-2)Man(a1-3)]Man(b1-4)GlcNAc(b1-4)GlcNAc
# In short: as §1
# [39] = biological target: Man(a1-3)[Man(a1-6)]Man(a1-6)[Man(a1-3)]Man
# In short: as §1
# [40] = biological target: Man(a1-3)[Man(a1-6)]Man(a1-6)[Man(a1-3)]Man(b1-4)GlcNAc(b1-4)GlcNAc
# In short: as §1
# [41] = biological target: Man(a1-3)[Man(a1-6)]Man(b1-4)GlcNAc(b1-4)GlcNAc
# In short: as §1
# [42] = biological target: Man(a1-3)[Man(a1-6)]Man(b1-4)GlcNAc(b1-4)[Fuc(a1-6)]GlcNAc
# In short: as §1
# [43] = biological target: Man(a1-6)Man
# In short: as §1
# [44] = biological target: Man(b1-4)GlcNAc
# In short: as §1
# [45] = biological target: MurNAc(b1-4)GlcNAc
# In short: as §1
binder,measurement,setting,value
"CFEM-CGl (Candida glabrata), Q6FRS0 (protein) VLATPPACLLACVAQVSKQSSQCHTLNQVGCFCENENTAIKNCLDSICPNGNSDAAYTAFKNSCGDVGKAVASV",glycan array binding signal (z-score),[1],0.1
same,glycan array binding signal (z-score),[2],-0.32
same,glycan array binding signal (z-score),[3],-0.202
same,glycan array binding signal (z-score),[4],-0.124
same,glycan array binding signal (z-score),[5],0.757
same,glycan array binding signal (z-score),[6],-0.079
same,glycan array binding signal (z-score),[7],-0.42
same,glycan array binding signal (z-score),[8],-0.059
same,glycan array binding signal (z-score),[9],-0.407
same,glycan array binding signal (z-score),[10],-0.399
same,glycan array binding signal (z-score),[11],-0.258
same,glycan array binding signal (z-score),[12],-0.135
same,glycan array binding signal (z-score),[13],-0.343
same,glycan array binding signal (z-score),[14],-0.269
same,glycan array binding signal (z-score),[15],-0.168
same,glycan array binding signal (z-score),[16],-0.156
same,glycan array binding signal (z-score),[17],0.197
same,glycan array binding signal (z-score),[18],-0.333
same,glycan array binding signal (z-score),[19],-0.396
same,glycan array binding signal (z-score),[20],0.678
same,glycan array binding signal (z-score),[21],-0.04
same,glycan array binding signal (z-score),[22],-0.025
same,glycan array binding signal (z-score),[23],-0.288
same,glycan array binding signal (z-score),[24],-0.384
same,glycan array binding signal (z-score),[25],-0.167
same,glycan array binding signal (z-score),[26],0.32
same,glycan array binding signal (z-score),[27],-0.13
same,glycan array binding signal (z-score),[28],0.893
same,glycan array binding signal (z-score),[29],-0.069
same,glycan array binding signal (z-score),[30],-0.381
same,glycan array binding signal (z-score),[31],-0.443
same,glycan array binding signal (z-score),[32],-0.214
same,glycan array binding signal (z-score),[33],-0.31
same,glycan array binding signal (z-score),[34],-0.365
same,glycan array binding signal (z-score),[35],-0.474
same,glycan array binding signal (z-score),[36],-0.137
same,glycan array binding signal (z-score),[37],-0.258
same,glycan array binding signal (z-score),[38],-0.174
same,glycan array binding signal (z-score),[39],-0.098
same,glycan array binding signal (z-score),[40],-0.003
same,glycan array binding signal (z-score),[41],-0.234
same,glycan array binding signal (z-score),[42],-0.316
same,glycan array binding signal (z-score),[43],-0.226
same,glycan array binding signal (z-score),[44],-0.397
same,glycan array binding signal (z-score),[45],-0.125
